Here are results for 1 molecule from patent publication US20230048046A1 (CUGENE, published 2023).

In test [1] the target is T1, huIL-15Rβ-6His (human, UniProt P14784 27-239).
T1 construct: Coated on the ELISA plate; also called IL-15Rβ subunit; huIL-15R/3-6His (so in the source); not shown: 6His tag per the name
T1 sequence (looked up): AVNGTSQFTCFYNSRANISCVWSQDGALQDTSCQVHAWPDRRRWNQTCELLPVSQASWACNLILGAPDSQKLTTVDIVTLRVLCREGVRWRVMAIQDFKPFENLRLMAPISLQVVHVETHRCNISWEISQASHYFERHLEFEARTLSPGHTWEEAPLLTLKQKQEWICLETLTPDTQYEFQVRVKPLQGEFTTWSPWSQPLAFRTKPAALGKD
The test is described as follows: ELISA, huIL-15Rβ-6His coated, anti-human IgG Fc-HRP detection. The protocol: (§1) The binding activity was tested in ELISA assay. Briefly, Nunc Maxisorp (ThermoFisher) plates were coated overnight at 4° C. with huIL-15R/3-6His at 1 μg/well (100 μl/well) in bicarbonate buffer pH 9.4 (ThermoFisher). After washing 3 times with PBS/0.05% Tween20, plates were incubated with SuperBlock (300 μl/well) at room temperature for 2 hrs. to block nonspecific binding. After washing, IL-15 compounds each at 3-fold serial dilutions with blocking buffer were added to the plates (100 μl/well) and incubated at room temperature for 1 hr. After washing, the Fc fusions were detected by 1 hr. incubation at room temperature with a goat anti-human IgG Fc secondary antibody conjugated with horseradish peroxidase (HRP) at 1:5000 dilution in blocking buffer (ThermoFisher) (100 μl/well). After washing, TMB substrate (ThermoFisher) was added (100 ul/well). Plates were sealed and incubated 5-20 min at room temperature in dark. Reaction was stopped by adding 2N sulfuric acid (Ricca Chemical) (50 uL/well) and absorbance was read at 450-590 nm.
(§2) The data strengthened the notion that the S58D substitution in the IL-15 peptide may tune IL-15 into a super-agonist attributed to the enhanced receptor binding activity.
(An ELISA detects its analyte on a solid surface through an enzyme-linked reagent.)

The target in test [2] is T1, huIL-15Rβ-6His. The test is described as follows: ELISA EC50 against P-0234 (IL-15 wild type). On the procedure:
as §1, §2

B1: P-0361, IL-15i1 ('GS' insertion after N95) in bivalent IL-15/IL-15Rα (non-covalent) Fc fusion format (Fc fusion)
chain 1: [human IgG1 Fc with L234A L235A G237A (EU numbers) not written out]GGGGSGGGGSGGGGSNWVNVISDLKKIEDLIQSMHIDATLYTESDVHPSCKVTAMKCFLLELQVISLESGDASIHDTVENLIILANNSLSSNGNVTESGCKECEELEEKNGSIKEFLQSFVHIVQMFINTS
chain 2: ITCPPPMSVEHADIWVKSYSLYSRERYICNSGFKRKAGTSSLTECVLNKATNVAHWTTPSLKCIRDPALVHQRPAPP
What is called EC50 is the concentration needed to bring the measured effect to its halfway point. Read a low EC50 as a more potent agent. The molecule B1 displayed an EC50 in test [1] of 7.66 nM. Also, the Fold change in test [2] is 9 fold.
